The RNAGym collection of RNA variant scans (doi:10.7554/elife.90254)
The source gives no read counts; variants with many changes may rest on few reads.

B1: OR4K15 (parent)
chain: GUUAACGGUCAUAGGCCAUGGAAACUAGGAGCACCAUUUCGCUGCCAGUGAAGAAAUGAACAAAGAAAAUCUGGGCCAGGCAGGCAUCAAAAGAAAUAGUCUUGCGCUCAACCAGAAAGUCUGUAAUCAUUUUAAGGGUA

Variants of: B1
Experiment: self-cleavage, relative activity (ratio to wild type); higher = more cleavage; in vitro, sequencing; the parent is a self-cleaving ribozyme

Variant	self-cleavage
GUUAACGGUCAUAGGGCAUGGAAACUAGGAGCACCAUUUCGCUGCCAGUGAAGAGAUGAACAAAGAAAAUCUGGGCCAGGCAGGCAUCAAAAGAAAUAGUCUUGCGCUCAACCAGAAAGUCUGUAAUCAUUUUAGGAGUA [C16G A55G A135G G137A]	1.18
GUUAACGGUCAUAGGCAAUGGGAACUAGGAGCACCAUCUCGCUGCCAGUGAAGAAAUGAACAAAGAAAAUCUGGGCCAGGCAGGCAUCAAAAGAAAUAGUCUUGCGCUCAACCAGAAAGUCUGCAAUCAUUUUAAGGGUA [C17A A22G U38C U124C]	1.18
GUUAACGGUCAUAGGGCAUGGAAACUAGGAGCACCAUUUCGCUGCCGGUGAAGAGAUGAACAAAGAAAAUCUGGGCCAGGCAGGCAUCAAAAGAAAUAGUCUUGCGCUCAACCAGAAAGUCUGUAAUCAUUUUAAGGGUA [C16G A47G A55G]	0.95
GUUAACGGUCAUAGGUCAUGGAAACUAGGAGCACCAUUUCGCUGCCAGUGAAGAAAUGAACAAAGAAAAUCAGGGCCAGGCAGGCAUCAAAAGAAAUAGUCUUGAGCUCAACCAGAAAGUCUGUAAUCAUUUUAAGGGUA [C16U U72A C105A]	0.05
GUUAACGGUCAUAGGUCGUGGAAACUAGGAGCACCAUUUCGCUGCCAGUGAAGAAAGGAACAAAGAAAAUCUGGGCCAGGCAGGCAUCAAAAGAAAUAGUCUUGCGCUCAACCAGGAAGUCUGUAAUCAUUUUAAGGGUA [C16U A18G U57G A116G]	0.2
GUUAACGGUCAUAGGCAAUGGAAACUAGGAGCGCUAUUACGCUGCCAGUGAAGAAAUGAACAAAGAAAAUCUGGGCCAGGCAGGCAUCAAAAGAAAUAGUCUUGCGCUCAACCAGAAAGUCUGUAAUCAUUUUAAGGGUA [C17A A33G C35U U39A]	0.7
GUUAACGGUCAUAGGACAUGGAAACUAGGAGCACCAUUUCGCUGCCAGUGAAGAAGUGAACAAAGAAAAUCUGGGCCAGGCAGGCAUCAAAAGAAAUAGUCUUGCGCCCUACCAGAAAGUCUGUAAUCAUUUUAAGGGUA [C16A A56G U108C A110U]	0.02
GUUAACGGUCAUAGGUCGUGGAAACUAGGAGCACCAUUUCGCUGCCAGUGAAGAAAUGGACAAAGAAAAUCUGGGCCAGGCAGGCAUCAAAAGAAAUAGUCUUGCGCUCAACCAGAAAGUCUGUAAUCAUUUUAAGGUUA [C16U A18G A59G G138U]	1.11
GUUAACGGUCAUAGGUCUUGGAACCUAGGAGCACCGUUUCGCUGCCAGUGAAGAAACGAACAAAGAAAAUCCGGGCCAGGCAGGCAUCAAAAGAAAUAGUCUUGCGCUCAACCAGAAAGUCUGUAAUCAUUUUAAGGGUA [C16U A18U A24C A36G U57C U72C]	0.21
GUUAACGGUCAUAGGUCAUGGAAACUAGGAGCACCAUCUCGCUGCCAGUGAAGAAAUGAACAAAGAAAAUCUGGGCCAAGCAGGCAUCAAAAGAAAUAGUCUUGCGCUCAACCAGAAAGUCUGUAGUCAUAUUAAGGGUA [C16U U38C G79A A126G U131A]	0.16
GUUAACGGUCAUAGGGCAUGGAAACUAGGAGCACCAUUUCGCUGCCAGUGAAGAAAUGAACAAAGAGAAUCUGGGCCAGGCAGGCAUCAAAAGAAGUAGUCUCGCGCUCAACCAGAAAGUCUGUAAUCAUUUUAAGGGUA [C16G A67G A96G U103C]	0.4
GUUAACGGUCAUAGGUCAUGGAAACUAGGAGCACCAUUUCGCUGCCAGUGAAGAAAUGAACAAAGAAAACCUGGGCCAGGCAGGCAUCAAAAGAAAUAGUCCUGCGCUCAACCAGAAAGUCUGUAAUCAUUUUAAGGGUA [C16U U70C U102C]	0.71
GUUAACGGUCAUAGGGCAUGGAAACUAGGAGCACCAUUUCGCUGCCAGUGAAGAAAUGAACAAAGAAAAUCUGGGCCAGGCAGGCAUCAAAAGAAAUAGUCUUGCGCACAACCGGAAAGUCUGUAAUCAUUUUAAGGGUA [C16G U108A A114G]	0.09
GUUAACGGUCAUAGGUCAUGGAAACUAGGAGCACCAUUUCGCUGCCAGUGAAGAAAUGAACAGAGAAAAUCUGGGCCAGGCAGGCAUCAAAAGAAAUAGUCUUGCGCUCAACCAGAGAGUCUGUAAUCAUUUUAAGGGUA [C16U A63G A117G]	1.8
GUUAACGGUCAUAGGUCAUGGAAACUAGGAGCACCAUUUCGCUGCCAGUGAAGAUAUGAACAAGGAAAAUCUGGGCCAGGCAGGCAUCCAAAGAAAUAGUCUUGCGCUCAACCAGGAAGUCUGUAAUCAUUUUAAGGGUA [C16U A55U A64G A89C A116G]	0.54
GUUAACGGUCAUAGGCAAUGGGAACUAGGAGCAUCAUUCCGCUGCCAGUGAAGAAAUGAACAAAGAAAAUCUGGGCCAGGCAGGCAUCAAAAGAAAUAGCCUCGCGCUCAACCAGAAAGUCUGUAAUCAUUUUAAGGGUA [C17A A22G C34U U39C U100C U103C]	1.4
GUUAACGGUCAUAGGUCAUGGAAACUAGGAGCACCACUUCGCUGCCAGUGAAGAAAUGAGCAAAGAAAAUCUGGGCCAGGCAGGCAUCAAAAGAAAUAGUCUUGCGCUCAACCAGAAAGUCUGUAAUCAUUUUAAGGGUA [C16U U37C A60G]	0.9
GUUAACGGUCAUAGGUCAUGGAAACUAGGAGCACCGUUUCGCUGCCAGUGAAGAAAUGAACAAAGAAAAUCUGGGCCAGGCAGGCAUCAAAAGAAAUAGUCUUGCGCUCAACCAGAGAGUCUGUAAUCAUUUUAAGGGUA [C16U A36G A117G]	1.5
GUUAACGGUCAUAGGUCAUGGAAACUAGGAGCACCAUUUCGCCGCCAGUGAAGAAAUGAACAAAGAAAAUCUGGGCCAGGCAGGCAUCUAAAGAAAUAGCCUUGCGCUCAACCAGAAAGUCUGUAAUCAUUUUAAGGGUA [C16U U43C A89U U100C]	1.75
GUUAACGGUCAUAGGACAUGGAAACUAGGAGCACCAUUUCGCCGCCAGUGAAGAAAUGAACAAAGAAAAUCUGGGCCAGGCAGGCAUCAAAAGAAAUAGUCUUGCGCUCAACCAGAAAGUAUGUAAUCAUUUUAAGGGUA [C16A U43C C121A]	0.17
GUUAACGGUCAUAGGUCGUGGAAACUAGGAGCACCAUUUCGCUGCCAGUGAAGAAAUGAACAAAGAAAAUCUGGGCCAGGCAGGCAUCAAAAGAAAUAGUCUUGCGCUCAUCCAGAAAGUCUGUAAUCAUUUUAAGGGUA [C16U A18G A111U]	0.09
